The record followed here is the RNAGym collection of RNA variant scans (doi:10.7554/elife.90254).

Read counts are not given, so values of variants with three or more changes are uncertain.

Sequences and labels used below:
B1: LINE1-full (parent)
chain: UACGUAGGUGGUUUUCCCCUGAUAGUGCUAAGGGGGCCUGGAAGUUUGGACUGGGCAGAGCUCAACACAGCGUGGCAAAGUGGCUGUGGCUAGACUGCCUCUCUGGAUUCCUCGUCACUCAGCAGGGCAUCUCUGAGAGAAAUGCC

Variants of B1 are the subject of the data set. Briefly: self-cleavage, relative activity (ratio to wild type); higher = more cleavage; in vitro, sequencing; the parent is a self-cleaving ribozyme.
On to U45A A78U U100C, for which the self-cleavage amounted to 2.43.

With A43G A57G U109C, the self-cleavage worked out at 0.32.

Turning to A43G A67U U87A U100C, the self-cleavage was determined as 0.82. On to U45C A59G U62A A64G C145A, for which the self-cleavage was found to be 0. Under A42G A65U A67U G72A A79C U143C stands 0.11; under A43G U87A C131U, 0.12; under G44U A67G U85A A107G A121G A140G, 0.

For A43G G75A U87C G97A U130C A138G, the self-cleavage worked out at 0.05. Regarding A42G U47C C68U, the self-cleavage came out at 0.14. On to A43G U46A A77U U119C, for which the self-cleavage came out at 1.37.

For the variant A42G U87C U112C, the self-cleavage was found to be 0.18. As for A43U U104A U134C, the self-cleavage is 1.93. Turning to A43G U109C A140G, the self-cleavage was 0.3. Under A43G U47A A121U U143A stands 1.14; under A42U G126U U130C, 0.66.

In the case of A43U G55U A77U U112C U115G U119A, the self-cleavage turned out to be 0.09. Consider A43G U108A A140G, for which the self-cleavage worked out at 1.23. On to A42G U73A A92U A94G C103A G114A A140G, for which the self-cleavage amounted to 0.16.

In the case of A42U G106C U112G U132A, the self-cleavage was 1.92. With A43G G74A U96A, the self-cleavage came out at 0.11. In the case of A42G A77G U130C, the self-cleavage stood at 1.95. Regarding A42G U47A A124G, the self-cleavage was 0.7. In the case of A42G C56U U62C U100A G122U A124U it was 0.04; in that of A42U A69G U143A, 0.34. For A42G U81A U119C, the self-cleavage was 0.

Take A43G G60U A69U A78G U104A A142G: the self-cleavage worked out at 0. In the case of U45A U81C U132A A140U, the self-cleavage was 0.99. With A43G C113U C131G A138G, the self-cleavage amounted to 0.86. As to A42G A69G A129G, the self-cleavage worked out at 2.63.

On to A42G U62C U119C, for which the self-cleavage stood at 0.

Consider A42G U45C A129G U134C A140G, for which the self-cleavage is 2.3. For the variant A43G A65G A136G, the self-cleavage was found to be 0.

As for A43G A92G U143C, the self-cleavage came to 0. Consider A43G A65G U109C, for which the self-cleavage is 0.18. On to A42U U102C U119C G122A A136G A140G, for which the self-cleavage was found to be 0.58. In the case of G44A A92G A94G it was 0.07. Consider A43G A65U U108C A140G, for which the self-cleavage is 0. Take A43G U52A A69G: the self-cleavage came to 0.3.

With A42G G106A A121G, the self-cleavage was 1.41. Regarding U45C A57G G127C, the self-cleavage came out at 1.23. Regarding A43U A77U C110U A136G, the self-cleavage is 1.22. Under A42G A77G U109C U115A stands 1.6. Turning to U45A A57G G72A A107G A129G A140G, the self-cleavage was 0.13. With A42G U52A U91C C133A G137U, the self-cleavage turned out to be 0.47. U45A A129G A142G: the self-cleavage was 1.67.

As to A42G U85C A141G, the self-cleavage was 0.24. With A42G U46A U85A, the self-cleavage is 0.12. With A42G U46C C99U A121G, the self-cleavage was 0.95. As to A42U U73A C145U, the self-cleavage was 0.87.

For A43G U47A A57C A124G A140U, the self-cleavage amounted to 0.27. In the case of A43G G55A A59G C61U U91C A92G it was 0; in that of A43G U62C A121G, 0; in that of A43G U62C A121U, 0.19.

Regarding A42G U45C A117U U119C, the self-cleavage was 1.84.

A42U U85A U115C: the self-cleavage was 0.05.

Regarding A42G A77G U108C, the self-cleavage came out at 2.92. Turning to U45C A78G U85C G105A, the self-cleavage is 0.45. On to A43G G54A A78G, for which the self-cleavage turned out to be 0.19. Take A42G G82A A117G A121G: the self-cleavage is 2.3. For A43G A107G U108C, the self-cleavage stood at 0.92.

On to A42G G53A C71U, for which the self-cleavage is 0.58. In the case of U45C A57U U62C it was 0; in that of A43G A94U U132C, 0.21.

Turning to A43G U47A U91C U104C, the self-cleavage worked out at 0. For A43U A79G U85C, the self-cleavage stood at 0.25. For A42G U112A G125C A140G, the self-cleavage was determined as 1.99.

As to A42U U81A A142G, the self-cleavage came to 1.21. As to A42U U52C U115C, the self-cleavage was determined as 1.49. For U45C A78U A79G, the self-cleavage turned out to be 0.63. As to A42G A94G A138G A141G, the self-cleavage stood at 0.88. Under A43G A65G U73C stands 0. As to A43G U85A C116U, the self-cleavage is 0.05. Turning to U45A A69U U87A U119C, the self-cleavage came out at 0.03. In the case of A42G U102C U112A, the self-cleavage came to 2.63. As to A42G U62C A79G, the self-cleavage is 0. Consider A42U U87A U104A, for which the self-cleavage is 0.04.

As to A43G U47A G125A, the self-cleavage turned out to be 0.56. As to U45C A79G U143C, the self-cleavage worked out at 1.46. As for A43G A64U A78G, the self-cleavage worked out at 0.34. With A42G A79G C111A A142G, the self-cleavage is 1.59. In the case of A42G U52C C128U it was 1.94; in that of U45A U104C U119C U130A, 1.95; in that of A42G U47C A141U, 1.09. Under A43G U47C A141U stands 1.76; under A43G U91C A129U, 0.29; under A42U A107G A140G, 1.27. Regarding A43U A77U U119C, the self-cleavage is 1.3. Under A42U U62C A77U stands 0.04. As to A43G U45C G97U, the self-cleavage is 0.09. In the case of A43C U45A A138G it was 1.41. With U45A U112C A124G, the self-cleavage turned out to be 0.32.

Consider A43G U108A A138U, for which the self-cleavage amounted to 1.1. For A42G A107G A138G, the self-cleavage was 1.04. Consider A43G A50U U102C C113U A138G, for which the self-cleavage stood at 0. With A43G G60C U108C, the self-cleavage turned out to be 0.06. Turning to A42G A67C U102C G114A, the self-cleavage worked out at 0.

Take A43G C51U G93A: the self-cleavage is 0.07.

For the variant A43G U47C U52A A94G, the self-cleavage came to 0.

Turning to A42G U100A U130C, the self-cleavage came out at 1.25. In the case of A42U A57G U102C it was 0.2. As to U45C A77U U143C, the self-cleavage came to 1.39. A43G U45C G82A: the self-cleavage amounted to 0.98. For the variant A43G C84A A94U U119C A140G, the self-cleavage worked out at 0.01. Under A43G U119G A140G stands 0.4; under A43C U45A U46C U96A, 0.28; under A42G U62A C128G, 0.02. For the variant A42U U62G U104A A129G A140G, the self-cleavage turned out to be 0.09. On to A43G A50G A140G U143C, for which the self-cleavage was 0. A43U U46C U109C A124C: the self-cleavage was 1.31. On to U45C A64G U134A, for which the self-cleavage amounted to 0.53. As for A43G A59G C63U A65G A136G, the self-cleavage came to 0.14. Under A43U A117G A140U stands 2.45; under A43G U45G G126A, 1.53; under A42U U62C U85A, 0.09. As for A42G U47A G60U U143C, the self-cleavage was determined as 0.05.

Turning to A42G U52C U143A, the self-cleavage is 1.64. For the variant A43G A50G U112A, the self-cleavage turned out to be 0.57. Regarding G44U U73C U96C A129U A141G, the self-cleavage amounted to 0.14. Regarding A43U A79G U112A, the self-cleavage was found to be 0.98. As for G44A C66U U73C, the self-cleavage was found to be 0.03. A42G U47A U100C: the self-cleavage worked out at 1.51. Under A42G U104C U132A G144A stands 1.49; under A43G U47A U87A U102A, 0.07. For the variant U45A C66U G74U A117U, the self-cleavage was 0.02. A43G C103A U115A A140G: the self-cleavage is 0.85. Consider A43G U62A U87A A121U U130A, for which the self-cleavage came out at 0.05. Take U45C A79G U85A: the self-cleavage stood at 0.06. Regarding U45C A59U C76U A92G A129U, the self-cleavage came to 0.12. In the case of A43U A57G U62C U73C A129U, the self-cleavage was 0. A43G A57C G89A U109A: the self-cleavage turned out to be 0.05.

For the variant A43G U52A A59U U81A U132C, the self-cleavage came out at 1.29.

With U45C A65G U87A U102C, the self-cleavage came to 0.16. In the case of A42G U85C U104A it was 0.15. With A42G C98U A129U, the self-cleavage came out at 0.56. For the variant A42G U46C A129G, the self-cleavage amounted to 0.42. Under A43G U96C U100C U109C A136U stands 0.48; under A43G U46C A129G, 1.27; under A43G U102A U132C, 1.6.

For A43G A65U U108C A124G, the self-cleavage is 0.75. As for A43C U73C C113U, the self-cleavage was determined as 1.86. In the case of A42U U87C C99U it was 0.07; in that of U45C A64U U134C, 0.4; in that of A43G G60A G97A U100A A136U, 0. For U45A G89A A141G, the self-cleavage amounted to 0.05. As to A42G G86A A138G, the self-cleavage amounted to 0.09. In the case of A43G U73A C113U it was 1.58; in that of G44A U102C C118U A138G, 1.57; in that of A43G A57G C66U U109A, 0.09. Regarding A43U U45C U100C U132C, the self-cleavage was 1.75. U45C A67G A121G A142G: the self-cleavage worked out at 0.88. With U45C A64G A78G A121C, the self-cleavage was 0.

Consider A42U A43G A121U U130C, for which the self-cleavage amounted to 1.7. For A42G U47C A57U U85C, the self-cleavage is 0.

Turning to A42G A65U U85A U96C U112A A121U A141G, the self-cleavage is 0.04. As to A42G U52C A64G, the self-cleavage came to 0. Regarding A42G U102A U130C, the self-cleavage came to 2.43. A43G A65U A94G: the self-cleavage was 0.11.

For A43G A121U A136G A142G, the self-cleavage amounted to 1.11. As to G44U U45C U46C U62C U130A G144A, the self-cleavage was found to be 0.01. As to U45C A65G U91A, the self-cleavage stood at 0. In the case of A42U U45C G72U it was 1.06. Turning to U45A A57G A64G, the self-cleavage is 0.23. As to A42U A64U A78G U112A, the self-cleavage came to 0.09. On to A43G A77U A141G, for which the self-cleavage was found to be 1.41. In the case of A43G G55A A77G, the self-cleavage was 0.1. As for A42G G72A A92G A117G U132C, the self-cleavage is 1.31.

Turning to A43G G58U A69G, the self-cleavage amounted to 0.06.
